# Measured values as given in PubChem BioAssay AID1347073 (National Center for Advancing Translational Sciences (NCATS), 2019).
# Among all 45,000 compounds or so, about 200 (0.44%) were called active. Not shown: some 7% with an inconclusive outcome. The call rests on the fitted dose curve; in most records, active means well fitted activation curve with a large enough effect; inconclusive means small, poorly fitted or top-dose-only effect; inactive means no such curve, though single readings can be large or run the other way. The list shows a part of the results.
# Assay: qHTS of TDP-43 Inhibitors: NCGC Sytravon Library Screen; further: 0% is about no effect; nearly all actives have a fitted effect of over 55% in size
# Settings: yeast TDP-43 toxicity rescue, BacTiter-Glo growth, 24 h; series mostly up to 46.1 µM; growth rescue (activation): at the top concentration
# Method in brief: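 TDP-43-expressing yeast, pregrown in raffinose, seeded at OD600 0.02 in galactose medium with compound for 24 hr at 30 deg C. Growth read by BacTiter-Glo luminescence, so rescue of toxicity appears as activation.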
row,Compound,growth rescue (activation)
1,CCOc1cc(/C=C2\SC(N3CCCCC3)=NC2=O)ccc1O,inactive: 5.56%
2,CN(C(=O)CSc1nc(O)cc(=O)n1C1CCCC1)c1ccccc1,inactive: 3.99%
3,O=C(c1cccc2ccccc12)N1CCN(c2ccc([N+](=O)[O-])c(NCc3ccco3)c2)CC1,inactive: -4.26%
4,COc1ccc(NC(=O)c2cc(C3CCCCN3C(=O)c3ccccc3)on2)c(C)c1 (stereo not given),inactive: 7.36%
5,O=C1Cc2cc(S(=O)(=O)Nc3ccc(N4CCOCC4)cc3)ccc2N1,inactive: 0.372%
6,CC(C)Oc1cccc(C(=O)C2CCCN(C(=O)CCc3cnn(C)c3)C2)c1 (stereo not given),inactive: 0.902%
7,Cc1oc(-c2cc(F)ccc2F)nc1CN1CCCN(C(=O)c2ccco2)CC1,inactive: 8.12%
8,COc1cccc(-c2cnc(C(O)c3ccccc3OC)[nH]2)c1 (stereo not given),inactive: 1.73%
9,Cc1nn(Cc2ccccc2)c(Cl)c1C(=O)OCC#N,inactive: 10.7%
10,Cc1c(NC(=O)/C(C#N)=C/C2CC=CCC2)c(=O)n(-c2ccccc2)n1C (stereo not given),inactive: 18.3%
11,COC(=O)c1ccc(CN2CCC(CO)(Cc3ccc(OC)cc3)CC2)cc1,inactive: -3.6%
12,COc1ccc(S(=O)(=O)N2CCCC(C(=O)NCc3ccco3)C2)cc1OC (stereo not given),inactive: -14.5%
13,N=C1C2=C3Sc4ccccc4N3CCCC2=NN1c1cccc(S(=O)(=O)O)c1,inactive: 27.2%
14,O=C(Nc1ccccc1)[C@@H]1CCCN1S(=O)(=O)c1ccc(Cl)cc1,inactive: 24.2%
15,CN(CC(=O)N1CCN(c2ccccn2)CC1)S(=O)(=O)c1ccc(Cl)cc1,inactive: 15.5%
16,CC1(C)NC(=O)N(CCOCCOc2ccccc2)C1=O,inactive: 10.2%
17,CC(C)[C@H](Nc1ccc(S(=O)(=O)N2CCOCC2)cc1[N+](=O)[O-])C(=O)OCC(=O)N(C(C)C)C(C)C,inactive: 11.4%
18,N#C/C(=C/c1ccc(-c2cccc([N+](=O)[O-])c2)o1)C(=O)Nc1nc(-c2cccs2)cs1,inactive: -9.85%
19,CC(C)CN1C(=O)c2ccc(C(=O)Nc3ccc(OCC(=O)O)cc3)cc2C1=O,inactive: 1.42%
20,N#Cc1ccccc1NC(=O)CSc1n[nH]c(=O)n1C1CC1,inactive: -21.8%
21,O=C(O)c1ccc(-n2cncn2)c([N+](=O)[O-])c1,inactive: -18.5%
22,Cc1ccc(C)c(SCC(=O)NC(=O)Nc2ccc3c(c2)OCCO3)c1,inactive: 8.85%
23,CCOC(=O)c1c(C)[nH]c(C(=O)COC(=O)CNC(=O)c2ccc(Cl)cc2)c1C,inactive: 1.72%
24,COc1cc(/C=C(\C#N)C(=O)NCC2CCCO2)ccc1OCCC(C)C (stereo not given),inactive: -7.16%
25,Cc1c(C(=O)N(C)Cc2nc3ccccc3c(=O)[nH]2)oc2ccccc12,inactive: 16.1%
26,CCOC(=O)c1c(-c2ccccc2)oc2ccc(OCC(O)CN(C)C)cc12 (stereo not given),inactive: -2.12%
27,CC(=O)c1cc(-c2ccccc2)n(CCC(=O)NC(C)(C)C)c1C,inactive: -5.03%

row,Compound,growth rescue (activation)
1,CN1CCN(C(=O)c2cc3c(=O)n4ccccc4nc3s2)CC1,inactive: -1%
2,CC1(C(=O)NC2CCCCC2)CCC(=O)N1Cc1ccc2c(c1)OCO2 (stereo not given),inactive: 1.48%
3,CCOP(=O)(OCC)C(NC(=O)Nc1cccc(Cl)c1)c1ccccc1 (stereo not given),inactive: -3.26%
4,Cc1nnc(NS(=O)(=O)c2ccc(F)cc2)s1,inactive: 4.3%
5,O=C1OC(c2ccccc2)=N/C1=C\C=C\c1ccco1,inactive: 20.7%
6,O=[N+]([O-])c1ccc(N2CCN(Cc3ccccc3)CC2)s1,inactive: 2.63%
7,Cc1nc2ccccc2nc1CN1CCC(CO)(CC2CCCCO2)CC1 (stereo not given),inactive: 1.71%
8,CCNS(=O)(=O)c1ccc(NC(=O)c2ccccc2SCCOC)cc1,inactive: 4.73%
9,CC(C)CN1CCN(Cc2cccn2-c2cccnc2)CC1CCO (stereo not given),inactive: 2.83%
10,C=CCN(CC=C)C(=S)NCCc1ccc(OC)c(OC)c1,inactive: 27.2%
11,Cc1cc(C)cc(NC(=S)NC2CC3CCCC(C2)N3C2CC2)c1 (stereo not given),inactive: 4.09%
12,Cc1ccc(S(=O)(=O)c2nc(NCCCn3ccnc3)sc2Cl)cc1,inactive: 13.1%
13,CC1(C(=O)NCc2ccc3c(c2)OCO3)CCN1Cc1csc2ccccc12 (stereo not given),inactive: 3.37%
14,CC(C)(C)c1ccc(C(=O)NCCCNC(=O)c2cccnc2)cc1,inactive: 10.4%
15,NC(=O)CSc1nnc(-c2cnccn2)n1Cc1ccco1,inactive: -23.2%
16,CN(C)C(=O)/C=C\c1cn(-c2ccccc2)nc1-c1ccc2c(c1)OCCO2,inactive: 33.7%
17,COc1ccc(CC(NC(C)=O)C(=O)NC2CCN(c3nc(C)cc(C)c3C#N)CC2)cc1 (stereo not given),inactive: -0.331%
18,CN(Cc1ccccn1)C(=O)CC1C(=O)NCCN1Cc1cccc(Oc2ccccc2)c1 (stereo not given),inactive: -15.9%
19,CCCC(CCC)C(=O)NC1CCN(Cc2ccccc2)CC1,inactive: 17.3%
20,CCC(c1n[nH]c(=S)n1-c1ccccc1)N(C)C (stereo not given),inactive: 17.8%
21,COc1ccccc1NC(=O)c1ccc2c(=O)n3c(nc2c1)CCC3,inactive: 17.9%
22,Cc1ccc(S(=O)(=O)N2CCN(C(=O)c3c(-c4ccccc4)noc3C)CC2)c(C)c1,inactive: -13.5%
23,O=C(CS(=O)(=O)Cc1ccccc1)Nc1ccc(S(=O)(=O)N2CCOCC2)cc1,inactive: 7.37%
24,CC(=O)NC1CC2CCCC(C1)N2C(=O)Nc1cccc(Cl)c1 (stereo not given),inactive: -7.08%
25,Cc1csc(SCC(=O)NC(=O)NC2CCCC2)n1,inactive: 14.6%
26,O=C(CN1C(=O)NC(c2ccccc2)(c2ccccc2)C1=O)NCCc1ccc(F)cc1,inactive: 10.7%
27,COc1cc(/C=C(/C#N)C(=O)Nc2ccccc2)c(Br)cc1OCc1ccc(C(=O)O)cc1,inactive: 9.33%

row,Compound,growth rescue (activation)
1,Cc1onc(-c2ccccc2)c1-c1nc2ccccc2c(=O)o1,inactive: 12.2%
2,CC1CCN(C(=O)Cn2cnc3c2c(=O)n(C)c(=O)n3C)c2ccccc2S1 (stereo not given),inactive: 3.88%
3,COc1cccc(N2CCN(C(=O)CN(C)S(=O)(=O)c3ccc4c(c3)c(=O)n(C)c(=O)n4C)CC2)c1,inactive: 0.426%
4,CCc1nnc(NC(=O)COc2ccc3ccccc3c2)s1,inactive: 14.7%
5,COc1ccc(-n2nc(C(=O)NCC(=O)NCCCN3CC(C)CC(C)C3)c3ccccc3c2=O)cc1Cl (stereo not given),inactive: -12%
6,COc1cc(/C=C2\SC(=S)N(NC(=O)c3ccc(O)cc3)C2=O)ccc1O,inactive: -17.3%
7,O=C1CSC(c2ccc(Cl)cc2)N1Nc1nc(N2CCOCC2)nc(N2CCOCC2)n1 (stereo not given),inactive: 1.72%
8,Cc1ccc(C(C(=O)NCc2ccccc2)N(C(=O)c2csnn2)C2CC2)cc1 (stereo not given),inactive: 18.3%
9,CCCCc1c(C)nc2c(OC)cccc2c1SCCC(=O)O,inactive: -20.2%
10,O=C(COC(=O)c1cccc2ccccc12)NCCCc1ccccc1,inactive: 9.25%
11,OC[C@@H]1CN(Cc2ccc(-c3ccccc3)cc2)C[C@H](n2cnc3c(NCc4ccco4)ncnc32)O1,inactive: 4.94%
12,CC(C)OC(=O)CC1C(=O)NCCN1C(=S)NC(=O)c1ccc(F)cc1 (stereo not given),inactive: -16.6%
13,N#Cc1ccccc1OCC(=O)NC(=O)NCc1ccccc1,inactive: 19%
14,Cc1c(C(=O)NCCC2=CCCCC2)oc2ccc(S(=O)(=O)N3CCC4(CC3)OCCO4)cc12,inactive: -9.61%
15,Cc1csc(SCC(=O)Nc2nnc(C)s2)n1,inactive: 21.5%
16,COc1ccc(CCNC(=O)c2ccc3c(c2)NC(=O)C(C(C)C)N3)cc1OC (stereo not given),inactive: 5.24%
17,COc1ccccc1C(=O)Nc1ccc(S(=O)(=O)N2CCCCC2)cc1,inactive: 13.8%
18,CC(C)NS(=O)(=O)c1ccc(CCC(=O)N2CCCCC2)cc1,inactive: 7.62%
19,Cc1nc(SCCC(=O)O)c2cc(-c3ccccc3)sc2n1,inactive: -2.16%
20,COc1ccccc1N1CCN(CC(O)COc2ccc(C)c(C)c2)CC1 (stereo not given),inactive: -13.4%
21,Cc1nn(-c2ccccc2)c(C)c1/C=N/Nc1nc2ccccc2[nH]1,inactive: 12.4%
22,CCCCC(NC(=O)Cc1c(C)c2cc3c(-c4ccccc4)coc3c(C)c2oc1=O)C(=O)O (stereo not given),inactive: 17.6%
23,COc1ccc(C2C(C#N)=C(C)NC(C)=C2C(=O)OC(C)C)c(OC)c1 (stereo not given),inactive: -1.55%
24,CCOc1ccc(-c2c(C(=O)N/N=C/c3ccccc3)nnn2-c2nonc2N)cc1,inactive: -3.51%
25,C=CCn1c(SCC(=O)c2ccc(F)cc2)nnc1-c1ccc2c(c1)OCO2,inactive: 27.7%
26,Cc1ccc(C(=O)NC(=S)Nc2ccc(NC(=O)c3cccc(Cl)c3)cc2)cc1,inactive: 19.9%
27,Cc1nc2cc(F)ccc2n1C1CCN(C(=O)c2ccc(F)cc2F)CC1,inactive: 6.72%

row,Compound,growth rescue (activation)
1,CC1=C(C(=O)NCc2ccccc2)C(c2cccs2)NC(=S)N1 (stereo not given),inactive: 1.82%
2,Cc1sc2nc(SCC(=O)Nc3ccc(Cl)c(C(=O)O)c3)[nH]c(=O)c2c1C,inactive: 4.59%
3,CCC(C(=O)OCC(=O)N1C(C)CCCC1C)c1ccccc1 (stereo not given),inactive: 4.11%
4,CCC(C)SCC(=O)Nc1ccc(S(=O)(=O)N2CCOCC2)cc1OC (stereo not given),inactive: 24.1%
5,CC(C)=CCN1CCN(Cc2c(C)nn(C)c2Cl)CC1CCO (stereo not given),inactive: 8.45%
6,O=C(NCCNC(=O)c1cnccn1)c1cccc(Cl)c1,inactive: 6.71%
7,CCNC(=O)C1(C)CCN(C(=O)c2ccccc2OC)C1 (stereo not given),inactive: -11.6%
8,Cc1nn(CC(=O)NCCc2ccccc2Cl)c(=O)c2nn(-c3ccccc3)c(C)c12,inactive: 0.115%
9,COc1ccccc1Nc1ccc(S(=O)(=O)N2CCCCC2)cc1[N+](=O)[O-],inactive: -9.41%
10,O=C(NC1CCCCC1)c1cc(S(=O)(=O)N2CCOCC2)ccc1Cl,inactive: -21.9%
11,O=C(COC(=O)C1C2CC3OC(=O)C1C3C2)Nc1cccc(Cl)c1 (stereo not given),inactive: 5.75%
12,CNc1cc(-c2cccc(OC)c2F)nc2ccnn12,inactive: 13.2%
13,COc1ccc(CN(C(=O)CO/N=C/c2ccccc2)c2ccccc2C(=O)O)cc1,inactive: 0.289%
14,O=C(CCS(=O)(=O)Cc1ccccc1)Nc1nncs1,inactive: -17.8%
15,COC(=O)c1ccc(CNC(=O)COC(=O)/C=C/c2ccc(O)c(OC)c2)cc1,inactive: 28.2%
16,CCOC(=O)C(=O)N(C)c1c(CC)nc2c(OCCC3CCCCC3)cccn12,inactive: -9.18%
17,CCN(CC(=O)NCc1ccc(F)cc1)C(=O)c1ccc(COc2ccccc2)cc1,inactive: 9.93%
18,COc1ccccc1/C=N/NC(=O)c1ccc(=O)n(C)c1,inactive: -7.23%
19,CC(=O)N(/N=C/c1ccc(C)cc1)c1nc(CCl)cs1,inactive: -16.7%
20,O=C(Oc1ccc(Br)cc1)c1n[nH]c(=O)c2ccccc12,inactive: 23.5%
21,O=[N+]([O-])c1cc(Cl)ccc1NCCc1ccccn1,inactive: 23.4%
22,COc1ccc(NC(=O)c2cc(-c3cc(OC)c(OC)c(OC)c3)nc3ccccc23)c(OC)c1,inactive: -17.4%
23,COC(=O)C1=C(N)Oc2cc(C)n(Cc3cccnc3)c(=O)c2C1c1ccccc1OC (stereo not given),inactive: 7.51%
24,COc1ccc(-c2cc(C(=O)NCCN3CCOCC3)no2)cc1OC,inactive: 6.79%
